This is one part of the list. Sequences were assembled here from the parent chain. Values near 0.05 are background.
B1: TEV protease; numbered along this chain (parent)
chain: MGESLFKGPRDYNPISSSICHLTNESDGHTTSLYGIGFGPFIITNKHLFRRNNGTLVVQSLHGVFKVKDTTTLQQHLVDGRDMIIIRMPKDFPPFPQKLKFREPQREERICLVTTNFQTKSMSSMVSDTSCTFPSGDGIFWKHWIQTKDGQCGSPLVSTRDGFIVGIHSASNFTNTNNYFTSVPKNFMELLTNQEAQQWVSGWRLNADSVLWGGHKVFMVKPEEPFQPVKEATQL

Variants of: B1
Test: raw area under fraction-flipped curve 0-4 h after induction (AUC4h, not background-subtracted), DNA-recorder readout of cleavage of the substrate (dimensionless); higher = more cleavage of the substrate by the protease variant
Conditions: temperature: 34 °C; time window: 0-4 h after rhamnose induction
Procedure: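 In vivo DNA recorder in E. coli TOP10(DE3) ΔrhaA at 34 °C. Each TEVp single-site mutant (parent TEVp 0) is paired with a single-site variant of the 7-mer TEVs (canonical ENLYFQ|S). The substrate sits between flexible linkers in a Bxb1-sfGFP-TEVs-SsrA fusion, so cleavage stabilises Bxb1 and speeds flipping of a recombination array, read by NGS. The value is the raw area under the fraction-flipped curve over 0-4 h after rhamnose induction (AUC4h), with ≥20 reads per time point. It is not background-subtracted; inactive controls average about 0.047.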
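Also: Bxb1 expression induced with 0.2% (w/v) L-rhamnose at OD600 near 0.5, cultures sampled hourly, flipped fraction per protease–substrate barcode pair counted by paired-end Illumina sequencing.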

Variant | area with substrate ENLYFAS | area with substrate ENLYFCS | area with substrate ENLYFDS | area with substrate ENLYFFS | area with substrate ENLYFHS | area with substrate ENLYFIS | area with substrate ENLYFKS | area with substrate ENLYFNS | area with substrate ENLYFPS | area with substrate ENLYFRS | area with substrate ENLYFSS | area with substrate ENLYFTS | area with substrate ENLYFVS | area with substrate ENLYFWS | area with substrate ENLYFES | area with substrate ENLYFGS | area with substrate ENLYFLS | area with substrate ENLYFMS | area with substrate ENLYFYS
D128L | 0.0467 | 0.067 | 0.0659 | 0.0706 | 0.0548 | 0.0697 | 0.0668 | 0.077 | 0.0545 | 0.0771 | 0.0582 | 0.0613 | 0.0654 | 0.0605 |  |  |  |  | 
D128M | 0.0534 | 0.0653 |  | 0.0688 |  | 0.0585 | 0.0524 | 0.0807 | 0.0591 |  |  | 0.0559 | 0.0609 | 0.0668 | 0.0638 | 0.0618 | 0.074 | 0.08 | 0.0529
D128R | 0.0862 |  |  | 0.0611 | 0.0529 | 0.0378 |  |  | 0.0592 | 0.0625 | 0.0535 |  |  |  | 0.067 |  | 0.039 | 0.0787 | 
D128I | 0.0623 | 0.0767 |  |  | 0.0618 | 0.0634 |  |  | 0.0617 | 0.0709 |  | 0.0579 | 0.0496 |  | 0.0677 | 0.0371 | 0.0596 | 0.0993 | 
D128N | 0.0869 | 0.0548 |  | 0.0643 | 0.0683 | 0.0621 |  | 0.0614 | 0.0083 | 0.0705 |  | 0.0739 | 0.0652 |  | 0.0651 | 0.0731 |  | 0.0696 | 0.0654
D128C | 0.0627 | 0.0593 |  |  |  | 0.0532 | 0.0514 | 0.0634 | 0.0623 | 0.0507 | 0.0572 | 0.0584 | 0.0593 |  |  | 0.0601 | 0.0498 | 0.0947 | 0.0588
D128W | 0.044 | 0.0702 |  | 0.0509 |  | 0.0645 | 0.0664 |  |  | 0.0504 | 0.0481 | 0.0419 |  |  |  | 0.0512 | 0.043 | 0.0911 | 
D128Y | 0.0698 | 0.0665 |  |  |  | 0.0553 |  |  | 0.0723 |  | 0.0529 | 0.0721 |  |  | 0.0682 | 0.0438 |  | 0.0407 | 0.0491
D128E | 0.0634 | 0.0593 |  | 0.0708 | 0.0648 | 0.0653 | 0.078 |  | 0.0648 |  | 0.0574 | 0.0663 |  | 0.0526 | 0.0806 | 0.0634 | 0.0577 | 0.0612 | 
P104L | 0.0425 | 0.0547 | 0.0566 | 0.0415 | 0.0561 | 0.0451 |  | 0.0533 | 0.0535 | 0.0272 | 0.0534 | 0.0396 | 0.0608 | 0.0512 | 0.0428 | 0.0552 | 0.0517 | 0.0515 | 0.0584
P104M | 0.048 | 0.0604 | 0.0473 |  |  | 0.0468 | 0.065 | 0.0565 | 0.0499 | 0.05 | 0.069 | 0.0503 |  | 0.054 | 0.0636 |  | 0.0426 | 0.0489 | 0.0571
P104I | 0.0468 | 0.0566 | 0.045 | 0.0575 | 0.0633 | 0.0551 | 0.0581 | 0.0587 | 0.0547 | 0.0491 | 0.0472 | 0.0485 | 0.0399 | 0.0625 | 0.0525 | 0.056 |  | 0.0515 | 0.0451
P104F | 0.0584 |  |  | 0.064 |  |  | 0.0402 |  |  |  |  | 0.0465 |  | 0.0683 |  |  |  | 0.0583 | 0.0599
P104W | 0.0515 | 0.0503 | 0.0575 | 0.0577 | 0.0399 | 0.0485 | 0.0589 | 0.057 | 0.0429 | 0.0668 | 0.0506 |  | 0.0286 |  | 0.0423 | 0.0431 | 0.0366 | 0.0475 | 0.0552
G150E | 0.0535 | 0.0624 | 0.0687 | 0.0745 | 0.0481 | 0.0606 | 0.0612 | 0.0485 | 0.0601 | 0.0482 | 0.0616 | 0.0594 | 0.051 |  | 0.0838 | 0.0796 | 0.0573 | 0.0557 | 0.0533
G150W | 0.0556 |  | 0.0567 | 0.0669 | 0.0617 | 0.055 | 0.0691 | 0.0548 | 0.0598 | 0.0591 | 0.0653 | 0.0368 | 0.0596 | 0.0585 | 0.0602 | 0.0626 | 0.0549 | 0.0599 | 0.0508
K142G | 0.0593 | 0.0564 | 0.0541 | 0.0646 | 0.0559 | 0.0557 | 0.0598 | 0.0659 | 0.067 | 0.0556 | 0.0508 | 0.0623 | 0.0607 | 0.0594 | 0.0589 | 0.0556 | 0.0339 | 0.0694 | 0.0597
K148A | 0.0509 | 0.0488 | 0.0666 | 0.0689 | 0.0309 | 0.0514 | 0.0483 | 0.0522 | 0.0587 | 0.0489 | 0.0929 | 0.0537 | 0.0535 | 0.0595 | 0.0794 | 0.0738 | 0.0673 | 0.0642 | 0.0573
W144N | 0.0545 | 0.0708 | 0.0538 | 0.0602 | 0.0557 | 0.0527 | 0.0561 | 0.0793 | 0.0822 | 0.0715 |  |  | 0.07 | 0.0585 | 0.0603 | 0.0589 | 0.0663 | 0.0619 | 
W144Y | 0.0622 | 0.0669 | 0.0606 | 0.0712 | 0.0654 | 0.0627 | 0.0606 | 0.0794 | 0.07 | 0.0543 | 0.0563 | 0.0602 | 0.0634 | 0.0602 | 0.0611 |  | 0.05 | 0.056 | 0.0523
W144C | 0.0726 |  | 0.0548 | 0.0735 | 0.0556 | 0.0574 | 0.0696 | 0.0832 | 0.0622 | 0.0597 |  | 0.0718 |  |  | 0.0443 | 0.0706 |  | 0.0569 | 
W144H | 0.061 | 0.0515 |  | 0.0548 |  | 0.0686 | 0.0581 | 0.0628 | 0.0386 | 0.0586 | 0.0585 | 0.0629 |  | 0.0573 | 0.0751 | 0.0769 | 0.0585 | 0.0659 | 
W144V | 0.0576 |  |  | 0.0714 | 0.0607 | 0.0595 | 0.0712 | 0.0635 | 0.0587 | 0.0793 | 0.0876 | 0.057 | 0.0589 | 0.0464 | 0.034 | 0.0404 | 0.0596 | 0.0664 | 
W144M | 0.0774 | 0.0667 | 0.071 | 0.0726 |  | 0.064 | 0.0956 | 0.061 | 0.0294 | 0.0738 |  |  | 0.0632 |  | 0.0751 |  | 0.0563 |  | 0.0662
